# Laboratory results reported in PubChem BioAssay AID894 (National Center for Advancing Translational Sciences (NCATS), 2007).
# Hit rate of the full screen: of about 150,000 compounds, about 6,500 (4.3%) were called active. This list was built around the results that the source calls inconclusive (neither active nor inactive); the mix of calls is not that of the screen. Calls come from the whole dose curve; as a rule, active = well fitted inhibition curve with a large enough effect (not every such curve was filed as active); inconclusive = small, poorly fitted or top-dose-only effect, or another doubt; inactive = no such curve, though single readings can be large or run the other way. Potencies of inconclusive entries are left out as doubtful fits.
# Molecular target: 15-hydroxyprostaglandin dehydrogenase [NAD(+)] (Homo sapiens) (UniProt P15428)
# Sequence of UniProt P15428 (P15428 whole entry, looked up): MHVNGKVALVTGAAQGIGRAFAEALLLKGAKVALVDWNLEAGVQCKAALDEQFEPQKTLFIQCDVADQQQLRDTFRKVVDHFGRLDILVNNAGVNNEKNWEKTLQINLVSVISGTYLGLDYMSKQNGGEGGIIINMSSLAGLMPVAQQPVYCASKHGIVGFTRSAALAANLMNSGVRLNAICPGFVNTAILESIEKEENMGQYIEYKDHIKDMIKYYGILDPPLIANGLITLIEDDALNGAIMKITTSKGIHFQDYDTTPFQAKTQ
# Test: qHTS Assay for Inhibitors of HPGD (15-Hydroxyprostaglandin Dehydrogenase)
# Details: purified HPGD, NADH fluorescence kinetic, PGE2 substrate; activity change, negative = inhibition: hits give low values
# Procedure, shortened: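 NADH formation kinetics: reaction with 30 uM PGE2 and 1 mM NAD+ (final), 20 nM enzyme, Tris-HCl pH 8 with Tween 20, after 15 min compound preincubation at room temperature. Fluorescence change, last versus first of five reads.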
# % is set by controls: 0 for no effect and ±100 for the full control effect; potency is the fitted concentration of half-maximal effect; tags give direction and shape of the fitted curve.
SMILES,Potency,"activity change, negative = inhibition"
Brc1c(CSc2nnc(-c3ccco3)o2)nc2ccccn12,active: 7.94 µM,
CCOC(=O)c1ccc2[nH]cc(C(C)=O)c(=O)c2c1,"inconclusive [inhibitor, partial curve]",
Cc1cc(C)c2c(-n3cccc3)c(NC(=O)OC(C)C)sc2n1,,inactive: -12.7%
N#CC1=C(N)C(C#N)(C#N)[C@H](c2ccsc2)[C@H]2COCC=C12,"inconclusive [inhibitor, single point]",
COc1cc(O)cc(OC)c1OC,,inactive: -6.09%
Cc1cc2cc(CNC(=O)c3cc4ccccc4o3)ccc2n1C,active: 7.08 µM,
Cc1cc(C(=O)CN2CCCC(C)C2)c(C)n1-c1ccc(F)cc1 (stereo not given),"inconclusive [inhibitor, partial curve, poor fit]",
CC(C)CNC(=O)CCCc1c[nH]c2ccccc12,active: 14.1 µM,
O=C(CCC(=O)OCC(=O)c1ccc(-c2ccccc2)cc1)Nc1cccc2cccnc12,,inactive: -19.9%
CC1=NOC(=O)/C1=C\c1ccc(-c2ccc(Cl)cc2Cl)o1,active: 1.78 µM,
CC(=O)N1CC=C2C(C#N)=C(N)C(C#N)(C#N)C(CCc3ccccc3)C2C1 (stereo not given),"inconclusive [inhibitor, partial curve]",
COCCNC(=O)c1cc2c(-c3ccc(Cl)cc3)nn(C)c2s1,"inconclusive [inhibitor, partial curve]",
O=[N+]([O-])c1ccc(/C=N/Nc2ccc3ccccc3c2)o1,,inactive: -11.5%
O=C(CSc1ncn[nH]1)Nc1ccnc2ccccc12,"inconclusive [inhibitor, partial curve]",
COC(=O)c1c(NC(NC(=O)CC(C)C)C(Cl)(Cl)Cl)sc2c1CCC2 (stereo not given),,inactive: -2.25%
CCOC(=O)C1CCCN(C(=O)c2ccc3c(c2)OCO3)C1 (stereo not given),active: 10 µM,
CN1CCN(C(=O)c2ccc(CSc3ccc(Cl)cc3)cc2)CC1,active: 8.91 µM,
CC1CCCN(S(=O)(=O)c2ccc(NC(=O)Cn3nnc(-c4ccccc4F)n3)cc2)C1 (stereo not given),,inactive: -6.1%
CC(C)COc1ccc(-c2nnc(-c3ccncc3)o2)cc1,"inconclusive [inhibitor, full curve, poor fit]",
COc1ccc2[nH]c(=O)c(CN(CC3CCCO3)C(=O)Nc3ccc(F)cc3)cc2c1 (stereo not given),"inconclusive [inhibitor, partial curve]",
O=C(NCC1COc2ccccc2O1)Nc1ccccc1F (stereo not given),"inconclusive [inhibitor, single point]",
c1ccc(CSc2n[nH]c(-c3ccco3)n2)cc1,active: 12.6 µM,
CS(=O)(=O)Nc1ccccc1C(=O)O,"inconclusive [inhibitor, partial curve]",
Cc1cc(C)c(C#N)c(SCC2COc3ccccc3O2)n1 (stereo not given),active: 14.1 µM,

SMILES,Potency,"activity change, negative = inhibition"
CCOC(=O)c1c(-c2cccc([N+](=O)[O-])c2)csc1NC(=O)CCCOc1ccccc1OC,"inconclusive [inhibitor, partial curve]",
Cc1c(C(=O)Nc2ccc3oc(-c4cccnc4)nc3c2)oc2ccccc12,"inconclusive [inhibitor, partial curve]",
CN(C)c1oc(/C=C/c2ccccc2)nc1C#N,"inconclusive [inhibitor, partial curve]",
COc1ccc(-c2oc3cc(OC)ccc3c2C(=O)c2ccc(C#N)cc2)cc1,,inactive: -8.41%
O=C(Nc1ccc(-c2nc3ccccc3[nH]2)cc1)c1ccc(N2C(=O)CCC2=O)cc1,"inconclusive [inhibitor, partial curve]",
CCOC(=O)C1CCCN(C(=O)c2ccc(CNc3c(N4CCC(C)CC4)c(=O)c3=O)cc2)C1 (stereo not given),active: 10 µM,
CC1=C(C(=O)OC2CCCCCC2)C(c2ccc(C)o2)C2=C(CCCC2=O)N1 (stereo not given),"inconclusive [inhibitor, partial curve]",
Cc1ccc2[nH]c3c(=O)n(CCCN4CCOCC4)cnc3c2c1,"inconclusive [inhibitor, single point]",
CCCCCn1c2nc3ccccc3nc2c2c(=O)n(CC(C)C)cnc21,"inconclusive [inhibitor, single point]",
COC(=O)C1=C(N)OC2=C(C(=O)CCC2)C1c1cccs1 (stereo not given),"inconclusive [inhibitor, single point]",
O=C(Nc1ccccc1)N(CCCN1CCOCC1)Cc1cc2cc3c(cc2[nH]c1=O)OCCO3,"inconclusive [inhibitor, single point]",
COCC(=O)N1CCC2(CCCN(c3ncccn3)C2)CC1,,inactive: -16.7%
S=c1[nH]nc(-c2cccc(Cl)c2)n1Cc1ccccc1,active: 17.8 µM,
COc1cc2c(cc1OC)C1=C(C#N)CN(CC(=O)O)CN1CC2,"inconclusive [inhibitor, single point]",
CC(C)c1cc(-c2n[nH]c(=S)n2Cc2ccccc2)cs1,"inconclusive [inhibitor, partial curve]",
COc1cccc(/C=C/C(=O)OCC(=O)Nc2cccc(S(=O)(=O)N3CCCCC3)c2)c1OC,"inconclusive [inhibitor, single point]",
Nn1c(SCc2cccc3ccccc23)nnc1-c1ccco1,active: 14.1 µM,
CN(C)S(=O)(=O)c1ccc(NC(=O)c2cc(-c3cccs3)nc3ccccc23)cc1,"inconclusive [inhibitor, partial curve]",
O=c1c2ccccc2oc2nc3ccn(Cc4ccncc4)c(=O)c3cc12,"inconclusive [inhibitor, partial curve]",
CC(C)(C)C1CCC2(CC1)SCC(=O)N2c1ccccc1 (stereo not given),,inactive: -7.45%
CCCCNc1nc(C)nc2c1nc(-c1ccccc1)n2CCN1CCCCC1,"inconclusive [inhibitor, partial curve]",
COc1ccc(NC(=O)c2cnc(C)cn2)cc1-n1cnnn1,,inactive: -10.5%
Clc1ccccc1Nc1ncnc2c1nnn2Cc1ccccc1,active: 22.4 µM,
COc1cc(NC(=O)c2noc3c2CCC3)c(OC)cc1Cl,"inconclusive [inhibitor, partial curve]",

SMILES,Potency,"activity change, negative = inhibition"
Cc1cccc(/N=C/c2c(O)c3ccccc3oc2=O)n1,"inconclusive [inhibitor, partial curve]",
CCNc1ncc2nc(-c3ccc(Cl)cc3)c(=O)n(-c3ccccc3)c2n1,"inconclusive [inhibitor, partial curve]",
CC(C)C(=O)Nc1nnc(CCN2CCOCC2)s1,,inactive: -3.51%
O=C(COC(=O)Cc1ccccc1F)Nc1ccc(SC(F)F)cc1,"inconclusive [inhibitor, partial curve]",
COCCn1c(=O)[nH]c(=O)c2c1nc(-c1ccc(-c3ccc(Cl)cc3[N+](=O)[O-])o1)n2Cc1ccccc1,"inconclusive [inhibitor, partial curve]",
O=C(Cc1ccccc1F)Nc1nc(-c2cccs2)cs1,,inactive: -21.2%
CS(=O)(=O)c1ccc2nc(NC(=O)c3cc(-c4ccccc4)nn3-c3ccccc3)sc2c1,"inconclusive [inhibitor, partial curve]",
O=C(Nc1ccccc1)N1N=C(c2cccs2)CC1c1cccs1 (stereo not given),"inconclusive [inhibitor, partial curve]",
CCc1c(C)c2cc(Cl)c(O)c(CN(C)C)c2oc1=O,"inconclusive [inhibitor, partial curve]",
O=c1oc(-c2cccs2)nc2c1cnn2-c1ccccc1,"inconclusive [inhibitor, partial curve]",
O=C(c1cc(-c2ccc(Cl)cc2)n(-c2cc(Cl)ccc2Cl)n1)N1CCOCC1,"inconclusive [inhibitor, partial curve]",
CC1/C(=N/O)CC(c2ccco2)NC1c1ccco1 (stereo not given),,inactive: -1.75%
O=C(Nc1ccccc1N1CCN(C(=O)c2ccc(Cl)cc2)CC1)c1ccc2c(c1)OCO2,"inconclusive [inhibitor, single point]",
N#CCCn1cc(C(=O)Nc2ccccc2Br)c(-c2cc3ccccc3o2)n1,"inconclusive [inhibitor, partial curve]",
C/C(N)=C(/C#N)C(=O)COC(=O)c1cc(-c2ccc(Br)cc2)nc2ccccc12,"inconclusive [inhibitor, partial curve]",
COCc1c(Br)c(C)[nH]c(=O)c1C#N,"inconclusive [inhibitor, partial curve]",
Cc1ccc(N2CC(C(=O)Nc3nnc(SCC(=O)Nc4nc(C)cs4)s3)CC2=O)cc1 (stereo not given),,inactive: -4.9%
CC1CCCCN1S(=O)(=O)c1ccc(C(=O)Nc2ccccc2-c2nc3ccccc3[nH]2)cc1 (stereo not given),"inconclusive [inhibitor, partial curve]",
Cc1cccn2c(=O)c(/C=N/O)c(N3CCCC3)nc12,"inconclusive [inhibitor, partial curve]",
CCCc1cc(=O)[nH]c(SCC(=O)c2cc(C)n(C)c2C)n1,"inconclusive [inhibitor, partial curve]",
COc1cc2[nH]c(=O)n(CCC(=O)NC3CCCC3)c(=O)c2cc1OC,"inconclusive [inhibitor, partial curve]",
Cc1ccccc1C1=NC(C(F)(F)F)(C(F)(F)F)c2c(n(-c3ccc(F)cc3)c(=O)[nH]c2=O)N1,"inconclusive [inhibitor, single point]",
